# “And” between values parts separate entries of the source, which are not always exact repeats. Equal values may be shown once.
# Test system: patients with moderate to severe L-DOPA-induced dyskinesia (LID) in Parkinson's disease
# Assay: Phase 2a study: adverse events (frequency, intensity, seriousness, causality), tolerability
smiles,measurement,setting,value
"Cc1ccc(CNCC2(F)CCN(C(=O)c3ccc(F)c(Cl)c3)CC2)nc1 [NLX-112, (3-chloro-4-fluoro-phenyl)-[4-fluoro-4-{[(5-methyl-pyridin-2-ylmethyl)-amino]-methyl}piperidin-1-yl]methanone]",Micturition urgency: subjects n,in vivo,1
same,Muscle spasms: events m,in vivo,1
same,Muscle spasms: subjects %,in vivo,(5.6%)
same,Muscle spasms: subjects n,in vivo,1
same,Musculoskeletal and connective tissue disorders (SOC): events m,in vivo,6
same,Musculoskeletal and connective tissue disorders (SOC): subjects %,in vivo,(28%)
same,Musculoskeletal and connective tissue disorders (SOC): subjects n,in vivo,5
same,Musculoskeletal stiffness: events m,in vivo,1
same,Musculoskeletal stiffness: subjects %,in vivo,(5.6%)
same,Musculoskeletal stiffness: subjects n,in vivo,1
same,Nasopharyngitis: events m,in vivo,1
same,Nasopharyngitis: subjects %,in vivo,(5.6%)
same,Nasopharyngitis: subjects n,in vivo,1
same,Nausea: events m,in vivo,4
same,"Nausea: events, m",in vivo,2 and 1
same,Nausea: subjects %,in vivo,(22%)
same,Nausea: subjects n,in vivo,4
same,Neck pain: events m,in vivo,0
same,Neck pain: subjects n,in vivo,0
same,Nervous system disorders (SOC): events m,in vivo,16
same,Nervous system disorders (SOC): subjects %,in vivo,(56%)
same,Nervous system disorders (SOC): subjects n,in vivo,10
same,On and off phenomenon: events m,in vivo,1
same,On and off phenomenon: subjects %,in vivo,(5.6%)
same,On and off phenomenon: subjects n,in vivo,1
same,Orthostatic hypotension (AE): events m,in vivo,2
same,Orthostatic hypotension (AE): subjects n,in vivo,2
same,"Orthostatic hypotension: subjects, %",in vivo,(13) %
same,Pain in extremity: events m,in vivo,1
same,Pain in extremity: subjects %,in vivo,(5.6%)
same,Pain in extremity: subjects n,in vivo,1
same,Palpitations: events m,in vivo,1
same,Palpitations: subjects %,in vivo,(5.6%)
same,Palpitations: subjects n,in vivo,1
same,Parkinsonism: events m,in vivo,3
same,Parkinsonism: subjects %,in vivo,(17%)
same,Parkinsonism: subjects n,in vivo,3
same,"Parkinsonism: subjects, %",in vivo,(17) %
same,Parosmia: events m,in vivo,1
same,Parosmia: subjects %,in vivo,(5.6%)
same,Parosmia: subjects n,in vivo,1
same,Pollakiuria: events m,in vivo,1
same,Pollakiuria: subjects %,in vivo,(5.6%)
same,Pollakiuria: subjects n,in vivo,1
same,Product communication issue: events m,in vivo,1
same,Product communication issue: subjects %,in vivo,(5.6%)
same,Product communication issue: subjects n,in vivo,1
same,Psychiatric disorders (SOC): events m,in vivo,9
same,Psychiatric disorders (SOC): subjects %,in vivo,(33%)
same,Psychiatric disorders (SOC): subjects n,in vivo,6
same,Rapid eye movement sleep behaviour disorder: events m,in vivo,1
same,Rapid eye movement sleep behaviour disorder: subjects %,in vivo,(5.6%)
same,Rapid eye movement sleep behaviour disorder: subjects n,in vivo,1
same,Renal and urinary disorders (SOC): events m,in vivo,2
same,Renal and urinary disorders (SOC): subjects %,in vivo,(11%)
same,Renal and urinary disorders (SOC): subjects n,in vivo,2
same,Restless legs syndrome: events m,in vivo,2
same,Restless legs syndrome: subjects n,in vivo,2
same,Rhinitis: events m,in vivo,0
same,Rhinitis: subjects n,in vivo,0
same,SAE Congenital Anomaly or Birth Defect (CA or BD): events m,in vivo,0
same,SAE Congenital Anomaly or Birth Defect (CA or BD): subjects n,in vivo,0
same,SAE Congenital Anomaly or Birth Defect: events m,in vivo,0
same,SAE Congenital Anomaly or Birth Defect: subjects n,in vivo,0
same,SAE Is Life Threatening (ILT): events m,in vivo,0
same,SAE Is Life Threatening (ILT): subjects n,in vivo,0
same,SAE Is Life Threatening: events m,in vivo,0
same,SAE Is Life Threatening: subjects n,in vivo,0
same,SAE Other Medically Important Serious Event (OMISE): events m,in vivo,0
same,SAE Other Medically Important Serious Event (OMISE): subjects n,in vivo,0
same,SAE Other Medically Important Serious Event: events m,in vivo,0
same,SAE Other Medically Important Serious Event: subjects n,in vivo,0
same,SAE Requires or Prolongs Hospitalization (RPH): events m,in vivo,0
same,SAE Requires or Prolongs Hospitalization (RPH): subjects n,in vivo,0
same,SAE Requires or Prolongs Hospitalization: events m,in vivo,0
same,SAE Requires or Prolongs Hospitalization: subjects n,in vivo,0
same,Sleep disorder: events m,in vivo,1
same,Sleep disorder: subjects %,in vivo,(5.6%)
same,Sleep disorder: subjects n,in vivo,1
same,Somnolence: events m,in vivo,1
same,Somnolence: subjects %,in vivo,(5.6%)
same,Somnolence: subjects n,in vivo,1
same,Stress: events m,in vivo,1
same,Stress: subjects %,in vivo,(5.6%)
same,Stress: subjects n,in vivo,1
same,Surgical and medical procedures (SOC): events m,in vivo,2
same,Surgical and medical procedures (SOC): subjects %,in vivo,(5.6%)
same,Surgical and medical procedures (SOC): subjects n,in vivo,1
same,Swelling of eyelid: events m,in vivo,1
same,Swelling of eyelid: subjects %,in vivo,(5.6%)
same,Swelling of eyelid: subjects n,in vivo,1
same,Syncope: events m,in vivo,0
same,Syncope: subjects n,in vivo,0
same,Systolic hypertension: events m,in vivo,1
same,Systolic hypertension: subjects %,in vivo,(5.6%)
same,Systolic hypertension: subjects n,in vivo,1
same,Taste disorder: events m,in vivo,0
same,Taste disorder: subjects n,in vivo,0
same,Tinnitus: events m,in vivo,1
same,Tinnitus: subjects %,in vivo,(5.6%)
same,Tinnitus: subjects n,in vivo,1
same,Vascular disorders (SOC): events m,in vivo,3
same,Vascular disorders (SOC): subjects %,in vivo,(17%)
same,Vascular disorders (SOC): subjects n,in vivo,3
same,Vertigo: events m,in vivo,2
same,Vertigo: subjects n,in vivo,2
same,"Vertigo: subjects, %",in vivo,(11) %
same,Vomiting: events m,in vivo,2
same,Vomiting: subjects n,in vivo,2
same,"Vomiting: subjects, %",in vivo,(11) %
same,highest titration dose 1.0 mg: patients %,in vivo,6.7%
same,highest titration dose 1.0 mg: patients n,in vivo,1
same,highest titration dose 1.75 mg: patients %,in vivo,13.3%
same,highest titration dose 1.75 mg: patients n,in vivo,2
same,highest titration dose 2.0 mg: patients %,in vivo,80%
same,highest titration dose 2.0 mg: patients n,in vivo,12
same,intensity of all AEs reported by patients on NLX-112,in vivo,mild to moderate
same,number of adverse events per patient,in vivo,71/18
same,"number of adverse events per patient, higher than placebo group",in vivo,about 11%
same,number of dizziness adverse events per patient,in vivo,2/18
same,overall safety and tolerability in Parkinson's disease patients,in vivo,safe and well tolerated
same,patients with AEs that led to dose reductions or dose interruptions,in vivo,4
same,"proportion of patients experiencing an adverse event, higher than placebo group",in vivo,11%
same,Oral pain: events m,"in vivo, po",1
same,Oral pain: subjects %,"in vivo, po",(5.6%)
same,Oral pain: subjects n,"in vivo, po",1
same,Skin and subcutaneous tissue disorders (SOC): events m,"in vivo, sc",0
same,Skin and subcutaneous tissue disorders (SOC): subjects n,"in vivo, sc",0
same,AE severity Death: events m,"steady state (NS), N=15",0
same,AE severity Death: subjects n,"steady state (NS), N=15",0
same,Any AE leading to death: events m,"steady state (NS), N=15",0
same,Any AE leading to death: subjects n,"steady state (NS), N=15",0
same,SAE Persistent or Significant Disability/Incapacity (PSD/I): events m,"steady state (NS), N=15",0
same,SAE Persistent or Significant Disability/Incapacity (PSD/I): subjects n,"steady state (NS), N=15",0
same,AE severity Death: events m,"up-titration (NU), N=18",0
same,AE severity Death: subjects n,"up-titration (NU), N=18",0
same,Any AE leading to death: events m,"up-titration (NU), N=18",0
same,Any AE leading to death: subjects n,"up-titration (NU), N=18",0
same,SAE Persistent or Significant Disability/Incapacity (PSD/I): events m,"up-titration (NU), N=18",0
same,SAE Persistent or Significant Disability/Incapacity (PSD/I): subjects n,"up-titration (NU), N=18",0
